Assay results reported in PubChem BioAssay AID1794842 (National Center for Advancing Translational Sciences (NCATS), 2023).
Fewer than 10 of roughly 2,800 compounds were called active. The call rests on the fitted dose curve; in most records, active means well fitted curve in the direction sought with a large enough effect; inconclusive means small, poorly fitted or top-dose-only effect, or another doubt; inactive means no such curve, though single readings can be large or run the other way. The list shows a part of the results.

molecular target: Metallo-beta-lactamase type 2 (Klebsiella pneumoniae) (UniProt C7C422); test: qHTS to identify inhibitors of the New Delhi Metallo-beta-lactamase (NDM): Meropenem screen against the machine-based learning selections.; further: % of control where 0% means no effect; conditions: Purified NDM-1, meropenem hydrolysis, absorbance 300 nm; at 38.4 µM (top of the series) unless noted
UniProt C7C422, sequence (C7C422 whole entry, looked up): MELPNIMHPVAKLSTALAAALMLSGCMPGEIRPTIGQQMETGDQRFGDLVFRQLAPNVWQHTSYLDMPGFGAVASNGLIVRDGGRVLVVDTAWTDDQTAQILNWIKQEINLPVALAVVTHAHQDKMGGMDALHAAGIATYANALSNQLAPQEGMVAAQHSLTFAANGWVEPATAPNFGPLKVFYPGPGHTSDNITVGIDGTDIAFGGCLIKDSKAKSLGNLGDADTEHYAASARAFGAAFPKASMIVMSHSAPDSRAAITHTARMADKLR
From the text: Assay Submitter (PI): James Inglese Ph.D., Patricia Dranchak Ph.D., Mahesh Aitha Ph.D. Assay Development and Screening Technology Laboratory (ADST) National Center for Advancing Translational Sciences (NCATS), Rockville, MD National Institute of Health (NIH), Bethesda, Maryland The metallo-beta-lactamases (MBL) are a main antibiotic resistance mechanism evolved by bacteria. There is an urgent clinical need for MBL inhibitors to mitigate this growing threat. To support a machine-based learning study, qHTS has been used to experimentally test inhibitors identified by prediction tools.
PROTOCOL TABLE (as described by Inglese et al., 2007) SEQUENCE No. (e.g., 1, 2, 3, etc.); […] (e.g., enzyme, Incubation, Reagent, etc.); VALUE; DESCRIPTION Primary Screen 1; NDM-1; 4 uL of 3 nM enzyme [2 nM final] in 50 mM HEPES (pH 7.0), 1 uM […], 0.01% Tween20; Use BioRaptr to dispense into two sets of Aurora black, clear bottom high base 1536-well plates 2; Compounds; 23 nL; Use Pin Tool (Wako) to transfer DMSO control and library compounds in DMSO 3; Incubate; >30 min 4a; Reagent; 2 uL of 50 uM nitrocefin [16.7 uM final] to one set of assay plates 4b; Reagent; 2 uL of 150 uM meropenem [50 uM final] to second set of assay plates 5a; Incubate; 15 min 5b; Incubate; 30 min 6a; Detector; Absorbance at 485 nm (bandwidth = 5 nm, 25 flashes/well) on Tecan Infinity 6b; Detector; Absorbance at 300 nm (bandwidth = 5 nm, 25 flashes/well) on Tecan Infinity NOTES (numbers refer to sequence above) 1; Column 1 of each plate received assay buffer without enzyme and columns 2-48 received enzyme for a final assay concentration of 2 nM. 2; Control plate contained DMSO in columns 1, 2, 3, and 4. 3; Compound interaction with enzyme. 4; Nitrocefin and meropenem substrates were prepared in the same assay buffer as step 1 for a final assay concentration of 16.7 uM and 50 uM, respectively, and added to all wells across respective sets of assay plates. 5; Default reader settings were applied for absorbance read at 485 nm (nitrocefin) or 300 nm (meropenem), bandwidth = 5 nm, 25 flashes/well. References: Inglese J, Shamu CE, Guy RK. 2007. Reporting data from high-throughput screening of small-molecule libraries. Nat Chem Biol. doi:10.1038/nchembio0807-438 Yasgar A, Shinn P, Jadhav A, Auld D, Michael S, Zheng W, Austin CP, Inglese J, Simeonov A. 2008. Compound Management for Quantitative High-Throughput Screening. J Lab Autom 13:79 - 89. doi:10.1016/j.jala.2007.12.004

Activity change, negative = inhibition, inactive:
COCCCNC(=O)CCC[C@@H]1[C@H]2CCCN3CCC[C@@H](CN1C(=O)c1ccccc1)[C@@H]23 0.47%
NC(=O)NCCN1CCCC(N2CCN(c3cccc(C(F)(F)F)c3)CC2)C1 (stereo unspecified) 44.2%
NC(=O)Cc1c[nH]c2ncc(-c3cccc(O)c3)cc12 11.3% [at 76.7 µM]
COc1ccc(CN2C(=O)[C@@H]3C[C@@H](CN3C3CCN(C)CC3)Oc3ccccc32)cc1 0.857% [at 57.5 µM]
C[C@@H](O)[C@H](N)C(=O)NCc1nc(-c2cccc(F)c2)c(-c2ccccn2)[nH]1 31.9%
COCC(=O)N[C@@H]1CCC[C@@H](C(=O)NCc2cc(F)cc(F)c2)CC(=O)N(C)C1 0.273% [at 57.5 µM]
COc1ccc(CN2CCNc3cnc(Nc4ccccc4)cc3C2)cc1O 9.11% [at 57.5 µM]
CC1(C(=O)NCCOc2ccccc2)CCCc2cnc(Nc3cccnc3)nc21 (stereo unspecified) -0.829% [at 57.5 µM]
O=C1CCCCC(CNC(=O)c2ccccc2)N1 (stereo unspecified) -3.43%
CC(c1ccc(-c2ccc(N(C)C)nn2)cc1)N(C)C (stereo unspecified) 17.4%
OCc1cccc(-c2cc3c(cn2)CN(Cc2ccccc2)CCN3)c1 -2.42% [at 57.5 µM]
CN(C)CC(NC1CCC2(CCNCC2)CC1)c1ccccc1 (stereo unspecified) 10.6%
COC[C@H]1C[C@@H](NC(=O)Nc2cccnc2)[C@H](O)[C@@H]1O 38.1% [at 76.7 µM]
COc1ccc(-c2cc(N3CCCN(C(=O)c4ccc(C)s4)CC3)n[nH]2)cc1 -2.79%
O=C(Nc1ccccc1CCc1ccccn1)C1CCN(c2cnn(Cc3ccccc3)c(=O)c2)C1 (stereo unspecified) 2.68%
NS(=O)(=O)c1ccc(C(=O)N[C@H](c2cccs2)C2CC(O)C2)cc1 (stereo partly specified) -0.552%
CNC(=O)[C@@H](c1ccccc1OC)N1CCC[C@H]1C(=O)N(C)CCN(C)C 49.5% [at 57.5 µM]
O=C(O)CCCC(=O)N1CCN2C(=O)c3cc(-c4ccco4)ccc3NC(=O)[C@@H]2C1 15.5% [at 57.5 µM]
CCCC(C)N1CC2(CCN(C(=O)c3cnn4ccccc34)CC2)OC1=O (stereo unspecified) 0.945%
O=C(NCCc1noc(C(F)(F)F)n1)[C@H]1CCC[C@H](O)C1 -2.79%
Cc1ccc(S(=O)(=O)Cc2noc([C@@H]3C[C@@H](O)CN3C(C)C)n2)cc1 1.26% [at 57.5 µM]
CCCn1ccc2sc(C)c(C(=O)NCc3cc(F)ccc3F)c2c1=O -1.34%
CC(C)N1CCC(O)(c2csc(CN3CCN(C)CC3)n2)CC1 -2.37% [at 57.5 µM]
Cc1csc(NC(=O)c2nc(C(O)c3cccc(O)c3)oc2C)n1 (stereo unspecified) 65.5% [at 57.5 µM]
Cn1c(CO[C@H]2CN(C(=O)c3cccnc3)C[C@H]2F)nc2ccccc21 0.954% [at 57.5 µM]
Oc1ccccc1CN1CCNc2cnc(Oc3ccccc3)cc2C1 7.83% [at 57.5 µM]
Cc1cccc2nc(CNC(=O)c3cccc(C4CCNC4)c3)cn12 (stereo unspecified) 38%
CCOc1ccccc1-n1c(Cc2ccc(O)cc2)n[nH]c1=O 0.327%
COc1ccc(-c2cnc([C@@H]3COCCN3Cc3cn(C)c4ccccc34)[nH]2)cc1 -1.61% [at 57.5 µM]
COc1ccccc1-c1noc(CCC(=O)N2CCC(Cc3noc(C)n3)CC2)n1 -4.18%
O=C(c1ccccc1)N1CCC(NCCN2CCCCC2CO)CC1 (stereo unspecified) 3.23%
C#CCN(C)CC[C@@H]1CC[C@H](O)[C@@H](C(=O)N(C)Cc2ccccc2)O1 -1.25% [at 57.5 µM]
Cc1ncnc(N2CCC(Oc3ccc4ccccc4c3)(C(=O)O)CC2)c1C 3.39%
O=C(O)CCCC(=O)N1C[C@@H](C(=O)O)[C@H](c2ccc3c(c2)OCO3)C1 1.3%
COC(=O)CNC(=O)C1CCN(C(=O)C2CN(c3cccc(OC)c3)C(=O)N2)C1 (stereo unspecified) -0.602%
COC(=O)[C@H]1CN(C(=O)c2cccnc2)CCN1C(=O)C1CCCCC1 -3.86% [at 57.5 µM]
CC1(C(=O)NCc2cccnc2)CCCc2cnc(NCc3ccccc3)nc21 (stereo unspecified) 1.94% [at 57.5 µM]
Fc1ccccc1CNC1(Cc2cc(-c3ccccn3)on2)COC1 4.18% [at 57.5 µM]
Cc1noc([C@@H](C)NCc2cccc(Cl)c2)c1C(=O)O 66.5% [at 57.5 µM]
O=C(CCc1c[nH]c2ccccc12)N1CCC(Oc2ncccc2C(=O)N2CCCCC2)C1 (stereo unspecified) 0.926%
O=C(Nc1ccccc1)N[C@H]1[C@H](O)[C@@H](N2CCN(c3ccccc3)CC2)[C@@H]2OC[C@H]1O2 6.33% [at 57.5 µM]
CCN(CC)Cc1cnc2c(C(=O)Nc3ccc(OC)c(OC)c3)cnn2c1 1.11%
C#CCN(C)Cc1nc(C2(O)CCN(CC3CCCCC3)CC2)cs1 0.103% [at 57.5 µM]
c1cncc(-c2ccnc(NCCCN3CCCc4ccccc43)n2)c1 3.43%
CS(=O)(=O)N1C[C@@H]2OCC(=O)N(Cc3cccnc3)[C@@H]2C1 -0.366% [at 57.5 µM]
OC1CC([C@H](NC2CSCCSC2)c2ccc3c(c2)CCO3)C1 (stereo partly specified) -1.24%
COC(=O)c1ccccc1NC(=O)Cn1cccc1-c1nc(-c2ccccc2)no1 3.57%
CNC(=O)[C@@H](c1ccccc1F)N1CCC[C@H]1C(=O)NCc1cccnc1 50.6%
OC1(CNCCc2nc(-c3cccnc3)n[nH]2)CNCCOC1 (stereo unspecified) 14%
COc1ccc(-c2ccnc(N[C@H]3CO[C@H]4[C@@H]3OC[C@@H]4NC(=O)c3ccc(C)cc3)n2)cc1 6.48%
COc1ccc(Cl)cc1-c1ccc2c(c1)C(=O)N1CC[C@H](N)C[C@H]1C(=O)N2 12.7% [at 57.5 µM]
